In the supplement of paper PMC3334620:
Over roughly 33,000 sequences, “E-score (-0.5 to 0.5)” has its median near -0.035; the highest 2% begin near 0.35. This is one part of the list.

target: T1, Pdr3 (UniProt P33200); test: PBM E-score (8-mer binding enrichment) (E-score (-0.5 to 0.5)); higher = stronger / more preferred TF binding; most listed sequences are background and not binding sites; conditions: protein concentration: 200 nM; construct: GST-full length
T1 sequence: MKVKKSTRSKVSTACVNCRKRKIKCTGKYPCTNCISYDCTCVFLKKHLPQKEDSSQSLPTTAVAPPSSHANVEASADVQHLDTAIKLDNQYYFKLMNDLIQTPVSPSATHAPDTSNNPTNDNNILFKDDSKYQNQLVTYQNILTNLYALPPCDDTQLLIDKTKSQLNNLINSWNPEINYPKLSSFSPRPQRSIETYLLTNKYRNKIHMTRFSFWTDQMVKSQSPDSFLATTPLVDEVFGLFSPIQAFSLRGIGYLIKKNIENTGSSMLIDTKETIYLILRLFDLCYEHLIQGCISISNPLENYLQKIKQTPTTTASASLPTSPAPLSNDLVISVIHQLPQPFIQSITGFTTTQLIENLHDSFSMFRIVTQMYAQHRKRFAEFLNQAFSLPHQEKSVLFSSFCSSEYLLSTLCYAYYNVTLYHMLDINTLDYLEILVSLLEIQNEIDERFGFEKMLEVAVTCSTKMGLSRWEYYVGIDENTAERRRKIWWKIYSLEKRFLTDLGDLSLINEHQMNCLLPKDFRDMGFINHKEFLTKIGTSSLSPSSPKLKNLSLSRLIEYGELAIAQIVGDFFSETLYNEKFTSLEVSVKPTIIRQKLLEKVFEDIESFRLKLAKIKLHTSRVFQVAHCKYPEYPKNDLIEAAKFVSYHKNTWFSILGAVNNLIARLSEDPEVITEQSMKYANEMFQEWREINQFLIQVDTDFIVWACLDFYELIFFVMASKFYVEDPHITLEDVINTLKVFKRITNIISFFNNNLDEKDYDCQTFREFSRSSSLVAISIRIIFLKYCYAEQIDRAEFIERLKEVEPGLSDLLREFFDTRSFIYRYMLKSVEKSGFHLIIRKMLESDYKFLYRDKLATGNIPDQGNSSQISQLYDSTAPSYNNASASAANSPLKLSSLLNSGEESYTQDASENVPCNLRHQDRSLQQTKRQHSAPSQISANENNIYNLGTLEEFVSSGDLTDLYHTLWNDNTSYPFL
In short: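 Bound GST-tagged yeast transcription factors, applied at about 100-200 nM to double-stranded universal all-10-mer Agilent arrays, were detected with fluorescent anti-GST. Scans were normalised with masliner. A modified Wilcoxon-Mann-Whitney statistic, the E-score, was assigned to each ungapped eight-base word pooled with its reverse complement by the Universal PBM Analysis Suite.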

Row | Sequence | PBM E-score
1 | CACACAAA | -0.0672
2 | GTGCGCGA | 0.135
3 | ATATTGTG | -0.125
4 | ATTAACAG | -0.142
5 | CAACATTA | -0.0498
6 | ATACCAAG | 0.0273
7 | ACGTCGAC | 0.0694
8 | ACCACTCT | -0.0702
9 | ACTCCTAC | -0.176
10 | AGACTCGG | -0.099
11 | CTGCCCAC | -0.184
12 | GCATAAGC | -0.145
13 | CCGTGGAA | 0.437
14 | CCTGGCAG | -0.214
15 | CCCTAACC | -0.0984
16 | TATGCTGA | -0.0666
17 | ACTGCAAA | 0.053
18 | TGCGAGAA | -0.139
19 | CCTACTAA | 0.111
20 | ACTTATCG | 0.0484
21 | CCGGTTCC | 0.426
22 | CGAGCCCG | 0.0919
23 | ACGAGGAG | -0.156
24 | AAGTGGGC | -0.0765
25 | AAAAGTTT | -0.0885

Row | Sequence | PBM E-score
26 | CGACCTCA | -0.02
27 | CCCTACGA | -0.111
28 | ATGAACCA | 0.11
29 | ATCAGCAT | 0.0174
30 | CCCAGAGA | -0.223
31 | AATATACC | 0.0896
32 | ACCATACC | 0.0114
33 | CATGTGTC | -0.0825
34 | GTGTCCGA | 0.279
35 | AAGACCTT | -0.276
36 | ATTCCGTC | 0.42
37 | TGTCCAAA | -0.0358
38 | GTTGCGCA | -0.103
39 | CCCGCTTC | 0.12
40 | GTTAAAAA | -0.152
41 | ATCAATTC | 0.054
42 | ACCAGCCT | -0.158
43 | GCTTGTCC | 0.128
44 | CCAGCGAG | -0.0025
45 | CTTGGAAA | -0.109
46 | AGGAGGAT | -0.0986
47 | CACCGGGC | 0.171
48 | GGGGGTGA | -0.129
49 | AACCCACT | 0.0857
50 | AAGCCTAC | -0.219

Row | Sequence | PBM E-score
51 | CCTGAACC | -0.188
52 | GTATACAC | -0.118
53 | AGCCGGAG | 0.362
54 | AGGATCGA | -0.0117
55 | ACAGGCAT | -0.0543
56 | CCTTGGAC | -0.181
57 | CTTAGTGC | 0.00478
58 | GGGGACAC | -0.0313
59 | AGCAAGCG | 0.226
60 | GGCAGCCC | 0.138
61 | CCATGTCA | -0.164
62 | GAAGGCAC | 0.0418
63 | CCCATAAC | -0.0757
64 | AGTTTATA | 0.183
65 | ATCAGTAG | -0.0545
66 | ATCCGACC | 0.193
67 | ACTGCGCA | 0.0867
68 | AATTACTG | 0.0363
69 | ACCCCATC | -0.0325
70 | CATGGACC | 0.00539
71 | ACAGTTGA | -0.0688
72 | AGGTAAAG | 0.025
73 | ACAAGCCC | -0.157
74 | CCGGACCA | 0.337
75 | ACTTGCGA | -0.00162

Row | Sequence | PBM E-score
76 | AAGTATAT | 0.098
77 | ATGGCGTC | 0.0108
78 | AGCTTCCG | 0.416
79 | CCATGTCG | 0.00323
80 | CGAATTAA | -0.0119
81 | AAACGTGC | -0.137
82 | AACAGCCT | -0.133
83 | ATCCTGAC | -0.106
84 | GCCACCGA | -0.0867
85 | AGACCGAC | 0.0765
86 | AGCACTGA | -0.061
87 | ACGTTATC | -0.0723
88 | CGCTAACA | -0.0873
89 | TCTTGCAA | 0.148
90 | ATATTTTA | 0.0395
91 | CGAGTATA | 0.0546
92 | ACATATGC | -0.316
93 | CCCAGGGA | -0.168
94 | CGAAATCC | 0.207
95 | TGGAGTAA | -0.0368
96 | ATCGATTG | 0.0872
97 | AACGCCAG | 0.151
98 | GCAAGGGC | -0.123
99 | CCGGCACC | 0.369
100 | CTTATGCC | -0.0276

Row | Sequence | PBM E-score
101 | CACGCGCG | 0.0707
102 | TTGCCAAA | -0.0395
103 | AACCCTGA | 0.103
104 | TACAAACA | -0.0403
105 | CATGCCTA | -0.0556
106 | CCCTCGCC | -0.107
107 | GAACATGA | 0.0104
108 | CCGCTTAC | -0.109
109 | CGAAATTA | 0.091
110 | CATCCCGG | 0.431
111 | ACCTGTAG | -0.102
112 | GTGGCAGA | -0.102
113 | ATGTGCCG | 0.0682
114 | ACAAGAAG | 0.0846
115 | ATAAGAGG | 0.0703
116 | CAAGTGCG | 0.064
117 | CGCAGAAG | -0.09
118 | ATACCGGA | 0.303
119 | AGGCCGGG | 0.141
120 | AGATCTCC | 0.0532
121 | GGGTCGAA | -0.0311
122 | TCGCGCGA | 0.268
123 | AGAACTAG | -0.221
124 | ATTGATCC | 0.322
125 | TAACGTTA | 0.105

Row | Sequence | PBM E-score
126 | CGAATACC | 0.0404
127 | AGATCCAA | 0.00027
128 | AAACTCAC | -0.0294
129 | ACGACTGC | -0.264
130 | GAGCCACA | -0.139
131 | CGCCAAAG | -0.0275
132 | ATAGATTG | 0.0442
133 | CTGTGCTA | -0.0248
134 | CTATCGCA | -0.17
135 | GCCTTGTA | -0.119
136 | ATGTGACA | -0.141
137 | CGTAGGTA | 0.0651
138 | CCCAATCA | -0.0364
139 | GCGTCAAA | -0.0421
140 | CGGTTACC | 0.101
141 | ACACGCGT | 0.0498
142 | AGTTGCTC | -0.0876
143 | GCAACGCC | 0.0137
144 | ATATTAAG | 0.0281
145 | AAAACTTT | -0.074
146 | AACGGCCA | 0.172
147 | CACTGGTC | -0.078
148 | AAATGACC | -0.0715
149 | GGCCTAAA | -0.149
150 | ACAGACAG | -0.0138

Row | Sequence | PBM E-score
151 | ACCAGTGG | -0.00822
152 | ACTGTCGA | -0.129
153 | GACGTCGA | 0.115
154 | ATCCTTTC | -0.132
155 | GGCGGGGA | 0.292
156 | CCGATCTA | 0.0827
157 | ACAGTGGT | -0.156
158 | CGAAACGC | -0.176
159 | AGTAGCGG | 0.134
160 | GAATGCCA | 0.0772
161 | AGGTATAG | -0.0746
162 | CACGACCA | -0.131
163 | CTACCTGC | 0.0949
164 | ATCCGAGA | 0.312
165 | AGCTGGGA | -0.0146
166 | CACAGCCA | -0.0191
167 | AGGCCGTC | 0.0206
168 | GAGTACCC | -0.00434
169 | CGCCCAGC | 0.172
170 | GCGTAGGA | -0.0309
171 | CTGAACAC | 0.0409
172 | AGCCATCC | 0.133
